Source: PMC6919601, “Identification of Plasmodium dipeptidyl aminopeptidase allosteric inhibitors by high throughput screening” (PLoS ONE, 2019)
Where “and” joins values, the source holds several entries; their conditions need not be identical. Equal entries are not always repeated. The campaign covered roughly 110,000 compounds. About 230 (0.21%) showed an effect of 50% or more. This is one part of the list.

Target: DPAP1 (Plasmodium falciparum, UniProt Q8IIJ9)
Assay: primary screen, percent inhibition; read by cleavage of a fluorogenic dipeptide substrate; higher = more effect of the substance
Design: species or system P. falciparum D10 trophozoite lysates; single well
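Also: 30 min substrate incubation versus DMSO and 10 µM JCP410 controls.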

DPAP1, sequence (Q8IIJ9 whole entry, looked up): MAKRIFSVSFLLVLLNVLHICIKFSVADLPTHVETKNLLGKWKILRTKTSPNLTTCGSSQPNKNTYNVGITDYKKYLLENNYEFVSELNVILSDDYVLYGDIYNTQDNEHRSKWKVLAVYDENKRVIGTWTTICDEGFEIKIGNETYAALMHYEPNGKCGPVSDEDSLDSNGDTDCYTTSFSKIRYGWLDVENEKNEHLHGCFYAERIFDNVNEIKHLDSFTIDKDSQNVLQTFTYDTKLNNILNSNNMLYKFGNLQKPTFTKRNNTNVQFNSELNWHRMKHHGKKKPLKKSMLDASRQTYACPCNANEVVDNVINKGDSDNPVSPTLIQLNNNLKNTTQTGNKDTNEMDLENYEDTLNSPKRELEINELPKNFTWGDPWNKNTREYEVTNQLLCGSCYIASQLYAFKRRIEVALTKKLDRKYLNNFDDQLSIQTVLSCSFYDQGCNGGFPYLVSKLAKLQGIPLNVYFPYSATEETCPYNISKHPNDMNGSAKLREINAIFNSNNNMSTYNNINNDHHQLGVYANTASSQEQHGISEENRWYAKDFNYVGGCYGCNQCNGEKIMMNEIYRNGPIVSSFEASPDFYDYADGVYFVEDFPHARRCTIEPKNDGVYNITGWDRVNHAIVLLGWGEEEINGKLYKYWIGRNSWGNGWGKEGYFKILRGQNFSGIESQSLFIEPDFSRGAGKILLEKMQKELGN

In order of falling “% Inhibition @ 10 uM” value:
1. COc1cc(/C=C(\C#N)c2nnc3n2CCCCC3)cc(OC)c1OC  18.3%
2. O=C(Nc1ccc(Cl)cc1C(=O)NCCN1CCOCC1)c1ccco1  16.8%
3. CC(C)C[C@H](NC(=O)c1ccc(Cl)c(-c2ccccc2)c1)C(=O)NCC#N  15.9%
4. COc1ccc(C2CC(C(F)(F)F)n3ncc(C(=O)N(C)Cc4cnn(C)c4C)c3N2)cc1OC (stereo not drawn)  11.2%
5. CCCOc1ccc2oc(=O)c3c(c2c1)CCCN3C(=O)CN1CCN(Cc2ccccc2)CC1  9.89%
6. CCc1ccc2c(c1)C(O)(CC(=O)c1ccc(Br)cc1)C(=O)N2 (stereo not drawn)  8.36%
7. COc1ccc(S(=O)(=O)N2CCN(Cc3cccc(OC)c3)CC2)cc1  8.09%
8. CCOC(=O)c1cnc(N2CCCCC2)nc1O  6.31%
9. CCCCNc1oc(/C=C/c2ccc(OCC)cc2)nc1C#N  5.68%
10. Cc1[nH]c2ccccc2c1CCN1C(=O)C2C3C=CC(C3)C2C1=O (stereo not drawn)  5.12%
11. CN(C)CCN(C)C1CC2CCC1C2 (stereo not drawn)  4.74%
12. Cn1c2ccccc2c2cnn(CC(=O)N3CCN(c4ccccn4)CC3)c(=O)c21  4.53%
13. Cc1nc2ccc(S(=O)(=O)NCC(=O)NCCC3=CCCCC3)cc2s1  4.14%
14. C=CC[C@@H]1Cc2ccccc2[C@@H](C)N1  4.08%
15. CCOCCCNc1c2c(c(C#N)c3nc4ccccc4n13)CCC2  4.08%
16. Cc1ccccc1C(=O)N1CCN(c2cccc(Cl)c2)CC1  4.03%
17. CC1(C)Cc2c(sc(NC(=O)C3CC(Cl)=CCC3C(=O)O)c2C#N)CO1 (stereo not drawn)  4%
18. COc1ccc(CNCCC2(O)CCOC(C)(C)C2)cc1 (stereo not drawn)  3.96%
19. CC(CCc1ccccc1)NC(=O)C1CCC(CNS(=O)(=O)c2ccccc2)CC1 (stereo not drawn)  3.93%
20. COC(=O)c1c2[nH]c3ccccc3sc-2cc(=O)c1=N  3.65%
21. COc1ccc(CCNCc2c(C(=O)O)n(Cc3ccccc3)c3ccccc23)c(OC)c1OC  3.54%
22. CC[n+]1c(S(=O)(=O)O)ccc2cccc(C)c21  3.25%
23. N=C(NOC(=O)c1ccc2c(c1)OCO2)c1ccccn1  2.95%
24. CC(=O)c1nnn(-c2ccnc(-c3ccc(Br)cc3)n2)c1C  2.55%
25. CC(C)N1CCN(c2ccncc2S(=O)(=O)N2CCOCC2)CC1  2.49%
26. Cc1cc(Cl)ccc1OCCCC(=O)N1CCc2ccccc21  2.4%
27. CCOC(=O)c1ccc(-n2c(CCC(=O)O)ccc2-c2ccc(C)cc2)cc1O  2.32%
28. O=C(Nc1ccc(NC(=O)c2cccc3ccccc23)cc1)c1ccco1  2.09%
29. CCCSCCCNC(=O)c1oc2c(c1C)-c1n[nH]cc1CC2  2.07%
30. Cc1cc(Oc2ccccc2)nc(-c2ccccc2)n1  1.91%
31. COc1ccc(C(=O)NC(c2c(C)nn(-c3ccccc3)c2O)(C(F)(F)F)C(F)(F)F)cc1  1.89%
32. CC(=O)n1c2ccccc2c2cc([N+](=O)[O-])ccc21  1.83%
33. CCCOc1ccc(C(=O)c2nc3c(n2O)CCCC3)cc1  1.74%
34. O=C(OCc1ccccc1)Sc1nc2ccccc2o1  1.67%
35. COC(=O)C(=O)/C=C(O)/C=C/c1ccccc1  1.58%
36. COc1ccccc1C(=O)Nc1nc2ccc(C)cc2s1  1.41%
37. COc1ccc(CNC(=O)c2nnn(Cc3ccc(C(C)C)cc3)c2N)cc1  1.26%
38. COCCCn1c(=O)c(C#N)cc2c(=O)n3cc(C)ccc3nc21  0.913%
39. Cc1coc2c1c(C)cc1oc(=O)c(CC(=O)NCCc3ccccc3F)c(C)c12  0.895%
40. CCC(=O)N1N=C(c2ccccc2)CC1c1cc2cc3c(cc2nc1Cl)OCCO3 (stereo not drawn)  0.884%
41. CCOc1cc(CN(C)C2CCN(C)CC2)ccc1O  0.847%
42. Cc1c(/C=N/n2cncn2)c(O)n2c(nc3ccccc32)c1C#N  0.736%
43. CCOc1ccc(C2C3=C(O)CCCC3=NC(C)=C2C(=O)Nc2ccccc2OC)cc1OC (stereo not drawn)  0.726%
44. O=C(c1cn(-c2ccccc2)nc1-c1ccccc1)N1CCN(Cc2ccccc2)CC1  0.716%
45. CC(C)Nc1nc(NC(C)C)nc(N(C)C#N)n1  0.587%
46. Cc1ccc(NC(=O)c2ccccc2C)cc1Cl  0.526%
47. Cc1c(C(=O)N2CCC3(CC2)OCCO3)oc2ccc(S(=O)(=O)N3CCCCCC3)cc12  0.287%
48. CCN(CC)C(=O)C1CCCN(Cc2ccc(C)o2)C1 (stereo not drawn)  0.273%
49. CCC1(CC)C(=O)NC(=O)N=C1SC  0.266%
50. COc1cc(OC)cc(C(=O)Nc2ccc(N3CCOCC3)c(Cl)c2)c1  0.214%
51. O=c1c(Cl)c(NCCC2=CCCCC2)cnn1C12CC3CC(CC(C3)C1)C2  0.0579%
52. Cc1ccc(CNC(=O)C2CCN(c3nnc(C)c4c(C)n(-c5ccccc5)nc34)CC2)cc1  -0.0309%
53. O=[N+]([O-])c1ccc(CN2CCN(c3ccc(Cl)cc3)CC2)cc1  -0.127%
54. COC1C=CC(CNC(=O)c2sc3nc(-c4ccccc4)cn3c2C)(OC)O1 (stereo not drawn)  -0.138%
55. CC12CC3CC(C)(C1)CC(C(=O)NO)(C3)C2  -0.239%
56. Nc1c(C(=O)c2ccc(Cl)cc2)sc2nc3c(cc12)CCC3  -0.261%
57. CC(C)N(C(=O)Cn1cc(S(=O)(=O)Cc2ccc(F)cc2)c2ccccc21)C(C)C  -0.861%
58. CC1(C)CC(=O)C(/C=N/C2CCCCCC2)=C(O)C1  -0.996%
59. Cc1ccc(-c2nc(NC(=O)CSc3n[nH]c(N)n3)ns2)cc1  -1.11%
60. CCOc1ccc(-c2nonc2NC(=O)C(C)C)cc1  -1.33%
61. CC(C)OCCCN1C(=O)c2[nH]nc(-c3ccccc3O)c2C1c1cccc(O)c1 (stereo not drawn)  -1.35%
62. CCCOc1ccc(C2c3c(-c4ccccc4O)n[nH]c3C(=O)N2CC2CCCO2)cc1 (stereo not drawn)  -1.35%
63. Cc1ccc(C)c(CN2CCCCC2c2cccnc2)c1 (stereo not drawn)  -1.5%
64. COc1ccc(-c2cc(-c3ccccc3)nc(N3CCCCC3)n2)cc1  -1.5%
65. CC1=CC(=O)OC1Cc1ccc2ccccc2n1 (stereo not drawn)  -1.54%
66. CCN1CCN(c2cc(SC)nc(-c3ccccc3)n2)CC1  -1.6%
67. CCc1cc2c(cc3c(=O)n(CC(=O)NCc4ccccn4)nc(CC)n32)s1  -1.7%
68. O=S(=O)(c1ccc(Oc2ccccc2)cc1)N1CCSC1  -1.86%
69. CN1C(=O)C(=Cc2coc3ccccc3c2=O)C(=O)N(C)C1=O  -2.19%
70. CC(=O)N1CC(c2ccccc2)C(c2ccc(Cl)cc2)=N1 (stereo not drawn)  -2.32%
71. O=C1Nc2ccccc2C12OCC1(CO2)COC2(OC1)C(=O)Nc1ccccc12 (stereo not drawn)  -2.54%
72. O=C1OC(c2ccc(Cl)c(Cl)c2)=N/C1=C\c1cccc(F)c1  -2.6%
73. CCOC(=O)c1cc2sccc2n1CCC(=O)O  -2.84%
74. COCCNC(C)C(=O)C12CC3CC(CC(C3)C1)C2 (stereo not drawn)  -2.91%
75. Cc1cc(OCC(=O)N2CCC(C)CC2)cc(C)c1Br  -3.29%
76. CC(C)(C)c1ccc(S(N)(=O)=O)cc1  -3.38%
77. O=c1c2c(nc3n1CCS3)-c1ccccc1CC21CCCCC1  -3.38%
78. CN1CCN(C(=O)c2ccc(-n3ccc4ccccc43)s2)CC1  -3.39%
79. C=CCc1cc(/C=C2/C(=N)N3OC(C)=CC3=NC2=O)cc(OC)c1OCc1ccccc1F  -3.46%
80. N#CCNC(=O)C(CC1CCCCC1)C(=O)NCc1ccccc1 (stereo not drawn)  -3.49%
81. CN1CCC(N2CCCC(CO)C2)CC1 (stereo not drawn)  -3.6%
82. CS(=O)(=O)N(CC(=O)N1CCCCC1)Cc1ccccc1  -3.71%
83. Cc1cc(/C=C2/NC(=O)NC2=O)c(C)n1-c1ccc(C23CC4CC(CC(C4)C2)C3)cc1  -3.75%
84. CC(c1ccccc1)c1nnc(NC(=O)c2ccc(Cl)cc2)s1 (stereo not drawn)  -3.78%
85. Cc1c2cnn(CC(=O)NCCC3=CCCCC3)c(=O)c2c(C)n1Cc1cccc(Cl)c1  -3.96%
86. Cc1cc(C)c(S(=O)(=O)n2nc(C)c(Sc3ccccc3)c2C)c(C)c1  -4.08%
87. CCOC(=O)c1cnc2nc(NCc3ccc(F)cc3)nn2c1O  -4.19%
88. CNC(=O)c1ccc([N+](=O)[O-])cc1Cl  -4.4%
89. O=C(Nc1cccc2cccnc12)c1ccccc1Br  -4.43%
90. COc1ccc2oc(=O)cc(CN3CCN(C(=O)c4ccc(Cl)cc4)CC3)c2c1  -4.9%
91. CC1CC(=O)C2=C(C1)OC(N)=C(C#N)C2c1ccccc1 (stereo not drawn)  -5.57%
92. Cc1ccc(C)c(OCC(=O)N2CCN(C(=O)COc3cc(C)ccc3C)CC2)c1  -5.92%
93. Cc1cc(C)c(S(=O)(=O)N2CCC(C(N)=O)CC2)cc1C  -6.43%
94. CN(C)CCCN(CCCN(C)C)Cc1cc(Br)cs1  -6.62%
95. Cc1ccc(S(=O)(=O)Nc2ccc(O)c(C(=O)O)c2)c(C)c1  -6.65%
96. O=S(=O)(c1ccccc1)n1nc(-c2ccc(Cl)cc2)nc1NCc1ccco1  -6.71%
97. Cc1ccc(/N=c2/sc3ccccc3n2C)cc1  -7.01%
98. COc1ccc(NC(=O)C2=C(C)Nc3nc(CCCO)nn3C2c2ccc(Cl)c(Cl)c2)cc1 (stereo not drawn)  -7.19%
99. CC(C)N(CCCNC(=O)Cn1ncn2cccc2c1=O)Cc1ccccc1  -8.41%
100. COc1ccc(-c2c(C)nn3c(NC4CC4)cc(C)nc23)cc1OC  -9.55%
101. CCOc1ccccc1N1CCN(C(=O)C(F)(F)F)CC1  -9.94%

In the case of Nc1ccc2nc3c(=O)[nH]c(=O)[nH]c3nc2c1, the “% Inhibition @ 10 uM” value is reported as 0.962% and -0.807%.
